Sequences and labels used below:
B1: CPEB3 Ribozyme (parent)
chain: UAACAGGGGGCCACAGCAGAAGCGUUCACGUCGCAGCCCCUGUCAGAUUCUGGUGAAUCUGCGAAUUCUGCUGUAUAUCUC

The source gives no read counts; variants with many changes may rest on few reads.

Variants of B1 are the subject of the data set. Description: self-cleavage, relative activity (ratio to wild type); higher = more cleavage; in vitro, sequencing. Put shortly:
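Libraries of CPEB3 self-cleaving ribozyme mutants came from rounds of error-prone PCR and carried barcodes, which DNA sequencing matched to variants. In vitro transcription used T7 RNA polymerase at 37°C for 5 hours, with a further 15 min in DNase I before EDTA stopped the reaction; the ribozymes cleaved during both steps. The RNA was reverse transcribed with template switching and sequenced on Illumina. Relative activity is the cleaved/total read fraction of a variant divided by that of the unmutated ribozyme, averaged over three batches with at least 5 reads.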
Turning to A5G C11A U48C U54C, the self-cleavage worked out at 0.49.
With A5G G7U U41C A47G U69A G73A the figure was 0.05.
With A5G A21C A45G A65G the figure was 0.14; with A5G A15U A20U U80C, 0.44; with A5G G8A A15G U26C A28U U41G, 0.42.
To A5C U31A A56U U72C U74C belongs 0.31.
Consider A5G A15U U25C U43C C50U, for which the self-cleavage worked out at 0.1.
Take A5G G24U U66C: the self-cleavage amounted to 0.09.
To A5G A13G U31C A75G belongs 0.19; to A5G G9U A45G, 0.27; to A5G A45G A47U U60A A77G, 0.2.
To A5G C38U A56U U66C belongs 0.1.
With A5G U25C A64G the figure was 0.3; with A5G G10C A35G C40A A47C U74C, 0.08.
Turning to A5G G33A A45G U69C G70C, the self-cleavage was 0.1.
For the variant A5G G9U A13U A15G, the self-cleavage was found to be 0.42.
With A5G C14U G24A A65G the figure was 0.07; with A5G G6A U78C, 0.11.
With A5C A35U C40G U54C the figure was 0.33; with A5C A20U A28C A47U A56G U69A, 0.12; with A5G C44A U69A U74G, 0.56.
To A5G A15G C39A A47G U60A U66C A77U belongs 0.19; to A5G A35C U41C A56U, 0.52.
As for A5G A21G A35G A45G A47G U67A, the self-cleavage came to 0.13.
On to A5G A18U A45G A65G U76C, for which the self-cleavage is 0.3.
To A5G C23U A28G A35U A64G G73A U76C belongs 0.03; to A5G A15C A35G U41C G73A, 1.08.
Regarding A5G A18U C39U U60A, the self-cleavage was found to be 0.29.
To A5C G9A A18U A45G A64U belongs 0.04; to A5C A28U A64U U78C, 0; to A5G A13G C34U U80C, 0.48.
To A5C G22A U26C U41C U69C G73A belongs 0.01.
To A5G A15G C37U G55C A75U belongs 0.19.
On to A5C A28G U76C, for which the self-cleavage was 0.67.
To A5G C14U U43C C79A belongs 0.56; to A5G C12A G36A U67A U72C U76C, 0.08; to A5G A45U A65G U78C, 0.14.
With A5G C11U A15U U25A U26C U51C A57G the figure was 0.45.
With A5G A18G G22A U41C U54A A65G U72C the figure was 0.05; with A5G C29G U72C, 0.4; with A5G C27A A64G U67C, 0.23.
In the case of A5C U26C U31A, the self-cleavage turned out to be 0.25.
With A5G G24U A35G U72C U80C the figure was 0.54; with A5G A20G C32U U54C, 0.09.
For the variant A5C C37A A57U U78C, the self-cleavage amounted to 0.18.
With A5G U25C A35G A56G the figure was 0.47; with A5G A21G A56G U66C U80C, 0.11.
For A5G A15G G53U, the self-cleavage was 0.55.
Turning to A5G A13G A28U U51A U67A U80C, the self-cleavage was 0.27.
On to A5G G6U U60A, for which the self-cleavage stood at 0.29.
To A5G C12U A45U A47G A65G belongs 0.14.
To A5G A15G A35U G61C U69C U74C A75G belongs 0.16; to A5G A18U U80C, 0.11.
To A5G C39A U43C A56G belongs 0.23.
As to A5G A18U G46A U49C, the self-cleavage came out at 0.08.
For A5G A13G C79U, the self-cleavage stood at 0.79.
To A5G A35G G70U belongs 0.49; to A5G A13G A21G U60C A77G, 0.36; to A5G G6A A64G, 0.23.
With A5C G10A U26C C50U A57G U80A the figure was 0.08; with A5G G24A A56U U72A, 0.16.
To A5G G7A C37A U72C belongs 0.22; to A5G A15G C38U A64U, 0.08.
Turning to A5G A18G U67A U76A, the self-cleavage was determined as 0.35.
To A5G A21G U25C U60C U69C belongs 0.13; to A5G C23U U54C, 0.28; to A5G C40U A56G, 0.53.
On to A5G A15U A21G, for which the self-cleavage stood at 0.22.
With A5C U25C U26C G63C the figure was 0.37; with A5G A13G A45U G55A U78C, 0.34; with A5G G10A A20G, 0.46.
To A5G C39U U51C U78A belongs 0.27.
To A5G A35G U66C U74C U76A belongs 1.15; to A5G A28C U48C U78C, 0.1; to A5C U41C A45G U51A, 0.33.
Regarding A5G A18U U26A U31C U66A U67G U76C, the self-cleavage is 0.12.
With A5G A18U U58C A64U U76A A77U the figure was 0.1; with A5G C23A U25C A57G C62U, 0.04.
With A5C G6C C12U A21G U78C C81U the figure was 0.1.
With A5G G10A U31A A77C the figure was 0.13; with A5G A21G A28G C29G C40A A64G A65U, 0.04; with A5G G9A U54C A57G U60A, 0.09.
Turning to A5G G8A U48C A64U, the self-cleavage was determined as 0.07.

Source of the values: the RNAGym collection of RNA variant scans (doi:10.1093/nar/gkz1192).
